In all, about 310,000 compounds went through this assay and about 14,000 (4.5%) showed an effect of 50% or more. The effect is printed as a negative number. Some of the results follow.
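Also: peak tail current of the secondary pulse compared with the same well before compound.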

For the test, the target named is human ether-à-go-go-related gene (hERG) potassium channel (human, UniProt Q12809). Description: primary screen, population patch clamp on CHO cells stably expressing hERG.
human ether-à-go-go-related gene (hERG) potassium channel, sequence (Q12809 whole entry, looked up): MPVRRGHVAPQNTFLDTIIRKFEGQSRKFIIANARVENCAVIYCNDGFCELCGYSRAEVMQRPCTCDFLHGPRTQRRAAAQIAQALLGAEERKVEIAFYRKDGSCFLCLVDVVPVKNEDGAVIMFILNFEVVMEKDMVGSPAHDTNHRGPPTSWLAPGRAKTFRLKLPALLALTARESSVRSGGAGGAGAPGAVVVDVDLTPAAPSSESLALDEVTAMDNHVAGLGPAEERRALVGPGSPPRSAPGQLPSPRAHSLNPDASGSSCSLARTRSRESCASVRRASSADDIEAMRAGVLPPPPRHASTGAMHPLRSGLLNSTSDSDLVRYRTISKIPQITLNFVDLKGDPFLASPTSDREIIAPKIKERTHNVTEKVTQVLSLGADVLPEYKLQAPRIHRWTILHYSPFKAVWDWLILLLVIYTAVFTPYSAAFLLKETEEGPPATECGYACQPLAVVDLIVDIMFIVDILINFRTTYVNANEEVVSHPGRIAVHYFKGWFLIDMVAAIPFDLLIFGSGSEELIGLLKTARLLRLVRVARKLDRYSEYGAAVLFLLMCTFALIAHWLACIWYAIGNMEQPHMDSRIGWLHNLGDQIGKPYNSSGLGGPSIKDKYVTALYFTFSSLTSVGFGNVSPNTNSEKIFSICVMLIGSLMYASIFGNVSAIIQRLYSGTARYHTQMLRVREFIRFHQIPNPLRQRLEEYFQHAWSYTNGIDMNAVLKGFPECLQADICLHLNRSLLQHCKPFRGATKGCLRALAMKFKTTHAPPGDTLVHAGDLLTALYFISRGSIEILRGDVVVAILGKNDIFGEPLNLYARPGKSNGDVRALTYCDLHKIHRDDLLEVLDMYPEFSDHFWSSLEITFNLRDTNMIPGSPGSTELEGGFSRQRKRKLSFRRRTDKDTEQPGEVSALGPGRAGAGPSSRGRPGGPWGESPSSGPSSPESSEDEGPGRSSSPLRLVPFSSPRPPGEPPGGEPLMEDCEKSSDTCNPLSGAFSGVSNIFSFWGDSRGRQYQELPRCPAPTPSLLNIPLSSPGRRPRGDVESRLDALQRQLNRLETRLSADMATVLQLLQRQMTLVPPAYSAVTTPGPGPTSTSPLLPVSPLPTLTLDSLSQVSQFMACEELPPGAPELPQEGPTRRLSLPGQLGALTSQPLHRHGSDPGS
For the compound `CCC(CC)C(=O)NCc1ccc2c(c1)cc(C)n2C`, the “hERG current change (%, negative = inhibition) at 10uM” value is reported as -8.89%.
Regarding `CC(=O)OC1CCC2(C)C(COc3ccc4ccc(=O)oc4c3)C(C)(O)CCC2C1(C)C` (stereo not drawn), the “hERG current change (%, negative = inhibition) at 10uM” value is on record as -29.4%.
As for `OC1(c2ccc(F)cc2)CCN(Cc2cccnc2)CC1`, the figure is 4.22%; as for `CC(=O)N(Cc1ccccc1)Cc1cn(CCC#N)nc1-c1cccc([N+](=O)[O-])c1`, -33%.
With `CC(C)(C)C1CCC(C(=O)Nc2nccs2)CC1` (stereo not drawn), the “hERG current change (%, negative = inhibition) at 10uM” value turned out to be 9.99%.
The result for `Cc1cccc(N/N=C/c2ccc(O)c(O)c2O)c1` reads 4.77%; that for `COc1cccc(/C=C/C(=O)Nc2ccc3c(c2)OCCO3)c1OC`, -3.49%; that for `CC1(CCc2ccccc2)NC(=O)N(Cc2nnc(-c3ccccc3Br)o2)C1=O` (stereo not drawn), -26%.
The result for `CN(C)CCNC(=O)CCCNC(=O)Cn1cnc2sc3c(c2c1=O)CCCC3` reads 4.71%; that for `CCOC(=O)[C@H]1[C@H]2COc3cc(OC)ccc3[C@@H]2N2C(=O)CN(CCc3c[nH]c4ccccc34)C(=O)[C@@]12C`, -1.64%; that for `O=c1oc(-c2ccccc2)nc2c1cnn2-c1ccccc1`, 8.89%.
As for `Cc1nnc(SCC(=O)Nc2ccccc2F)n(N)c1=O`, the “hERG current change (%, negative = inhibition) at 10uM” value was 5.7%.
In the case of `CSc1ccccc1C(=O)NC1CCCN(c2ccc(C(F)(F)F)cn2)C1` (stereo not drawn), the “hERG current change (%, negative = inhibition) at 10uM” value is -4.58%.
`CCOc1ncccc1C(=O)Nc1ccccc1F`: the “hERG current change (%, negative = inhibition) at 10uM” value came to 1.07%.
The result for `Cc1ccc2oc(C(=O)N(C)CCC(O)c3ccccc3)c(C)c2c1` (stereo not drawn) reads 11.5%; that for `O=C(NCc1ccc(F)cc1)C(c1ccc(F)cc1)N(C(=O)c1csnn1)C1CC1` (stereo not drawn), 9.3%; that for `CCN(c1cccc(C)c1)S(=O)(=O)c1nnc(NC(=O)c2ccco2)s1`, 3.8%.
As for `Cc1cccn2c(=O)c(/C=C(\C#N)C(=O)NCc3ccco3)c(N3CCCCC3)nc12`, the figure is -37.8%; as for `OCCSc1nc2ccccc2n1CCOc1ccccc1`, 4.02%.
`Cn1cnnc1SCC(=O)Nc1ccccc1C(=O)NC1CCCC1`: the “hERG current change (%, negative = inhibition) at 10uM” value is reported as 11.8%.
The result for `CC(=O)N1CCc2cc(S(=O)(=O)NC(CC(C)C)C(=O)N3CCCC3)ccc21` (stereo not drawn) reads -20.2%; that for `Cc1ccc(S(=O)(=O)N2CCCCC2)cc1NC(=O)c1cc2ccccc2o1`, -7.85%; that for `Cc1ccc(-n2c(CNc3ccc(F)cc3)nnc2SCC(=O)NCc2ccco2)cc1`, -40.8%.
In the case of `O=C(NCCS(=O)(=O)N1CCN(c2ccccc2)CC1)C1CC(=O)N(c2ccc(F)cc2)C1` (stereo not drawn), the “hERG current change (%, negative = inhibition) at 10uM” value is on record as -1.02%.

Values taken from paper PMC4336329 (PLoS ONE, 2015).
